Source: article PMC6919601, “Identification of Plasmodium dipeptidyl aminopeptidase allosteric inhibitors by high throughput screening” (PLoS ONE, 2019)
In all, about 110,000 compounds went through this assay and about 230 (0.21%) showed an effect of 50% or more. This is one part of the list.

Biological target: DPAP1 (Plasmodium falciparum, UniProt Q8IIJ9)
Experiment: primary screen, percent inhibition; read by cleavage of a fluorogenic dipeptide substrate; higher = more effect of the substance
Design: species or system P. falciparum D10 trophozoite lysates; single well
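Note: 30 min substrate incubation versus DMSO and 10 µM JCP410 controls.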

Sequence of DPAP1 (Q8IIJ9 whole entry, looked up): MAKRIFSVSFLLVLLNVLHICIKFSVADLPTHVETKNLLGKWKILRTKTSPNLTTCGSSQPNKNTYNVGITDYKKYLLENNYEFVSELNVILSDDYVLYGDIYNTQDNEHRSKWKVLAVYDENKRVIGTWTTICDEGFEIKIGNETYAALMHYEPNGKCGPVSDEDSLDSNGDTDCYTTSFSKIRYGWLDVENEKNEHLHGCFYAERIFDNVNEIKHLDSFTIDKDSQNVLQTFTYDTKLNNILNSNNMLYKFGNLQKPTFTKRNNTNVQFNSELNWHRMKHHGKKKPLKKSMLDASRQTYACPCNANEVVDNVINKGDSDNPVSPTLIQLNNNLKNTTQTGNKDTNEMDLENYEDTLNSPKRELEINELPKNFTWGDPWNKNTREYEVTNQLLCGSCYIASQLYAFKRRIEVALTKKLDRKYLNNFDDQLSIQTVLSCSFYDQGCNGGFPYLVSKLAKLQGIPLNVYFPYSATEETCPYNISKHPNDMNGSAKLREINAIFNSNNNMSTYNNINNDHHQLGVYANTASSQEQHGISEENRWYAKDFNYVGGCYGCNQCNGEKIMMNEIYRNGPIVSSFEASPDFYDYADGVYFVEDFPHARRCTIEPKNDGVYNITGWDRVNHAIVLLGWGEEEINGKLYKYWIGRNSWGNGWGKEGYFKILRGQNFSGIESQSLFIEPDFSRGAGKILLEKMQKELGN

Going from `O=[N+]([O-])c1ccc(N2CCOCC2)cc1OCCOc1ccccc1` to `O=C1N/C(=C/c2ccc(N3CCOCC3)o2)C(=O)N1c1cccc(Cl)c1`, the “% Inhibition @ 10 uM” value rises from -6.78% to 2.86%.

Going from `CCN(CC)CC(O)Cn1c(C)c(C)c2ccccc21` (stereo not drawn) to `CCn1c2ccccc2c2cc(CN(CCN(C)C)Cc3ccccc3)ccc21`, the “% Inhibition @ 10 uM” value falls from 5.31% to -2.18%.

First: c1ccc(C2(Cn3ccc4ccccc43)OCCO2)cc1
Second: N#CCNC(=O)C(Sc1ccccc1)c1ccccc1 (stereo not drawn)
The “% Inhibition @ 10 uM” value of the first is higher: 4.33% for the first, -4.65% for the second.

First: O=C(Nc1nn2c(COc3ccccc3)nnc2s1)c1cccc(F)c1
Second: Cc1cc(C)nc(NC(=O)COc2ccccc2)n1
The “% Inhibition @ 10 uM” value of the first is lower: -4.37% for the first, -1.36% for the second.

Going from `COc1nc2c(c(=O)n(C)c(=O)n2C)n1Cc1ccc(Cl)c(Cl)c1` to `Cn1c(NCCc2ccccc2)cc(=O)n(C)c1=O`, the “% Inhibition @ 10 uM” value falls from 5.31% to 2.44%.

Compared with `CCc1ccc(C2C(C#N)=C(N)Oc3cc(N(C)C)ccc32)cc1` (stereo not drawn), `COc1ccc(CC(=O)Nc2ccc(S(=O)(=O)Nc3onc(C)c3C)cc2)cc1` is higher in “% Inhibition @ 10 uM” value: -2.91% for the first, 1.57% for the second.

First: CC1(C)CC2=Nc3ccccc3NC(c3cc4c(cc3[N+](=O)[O-])OCO4)C2=C(O)C1 (stereo not drawn)
Second: Cc1nccn1CC1CCc2c(c3ccccc3n2C)C1=O (stereo not drawn)
The “% Inhibition @ 10 uM” value of the first is lower: -1.25% for the first, 0.962% for the second.

Going from `CCOC(=O)N1CCN(C(=O)c2ccc(OCC)c(OCC)c2)CC1` to `CCC(=O)N1CCN(c2ccc(NC(=O)COc3ccc(C(C)CC)cc3)cc2)CC1` (stereo not drawn), the “% Inhibition @ 10 uM” value rises from -3.69% to 27.7%.

First: CCO/C(O)=C1\C(C)=NC(=S)NC1c1ccccc1OC(F)F (stereo not drawn)
Second: CCOC(=O)c1c(NC(=O)c2cc(-c3ccccc3OC)on2)sc(C(C)=O)c1C
The “% Inhibition @ 10 uM” value of the first is lower: -0.142% for the first, 6.29% for the second.

Compared with `CCOc1cccc2c1OC(c1cccnc1)N1N=C(c3ccccc3)CC21` (stereo not drawn), `Cc1ccc(/C=c2\sc3nc(=O)c(Cc4ccc(Cl)cc4)nn3c2=O)cc1` is higher in “% Inhibition @ 10 uM” value: -1.11% for the first, 0.628% for the second.

Compared with `Fc1ccccc1N1CCN(c2ncccn2)CC1`, `COc1cc(-c2nc3s/c(=C\C4=Cc5ccccc5OC4)c(=O)n3n2)cc(OC)c1OC` is lower in “% Inhibition @ 10 uM” value: -5.62% for the first, -6.78% for the second.

First: CC(C)CC(C(=O)NCC#N)c1cccc(-c2ccc(S(=O)(=O)N3CCC(N(C)C)C3)cc2)c1 (stereo not drawn)
Second: CCCn1c(-c2ccc(OC)cc2)c(-c2ccc(OC)cc2)oc1=O
The “% Inhibition @ 10 uM” value of the first is higher: 3.19% for the first, -2.86% for the second.

Going from `CN1CCN(C(=O)CCCCCCCCC(=O)N2CCN(C)CC2)CC1` to `Cc1cc(C)c(NC(=O)C2CCCCN2C2CCCCC2)c(C)c1` (stereo not drawn), the “% Inhibition @ 10 uM” value falls from 9.68% to -0.415%.

In the case of `Nc1nc(N)nc(-c2ccc(-c3nc(N)nc(N)n3)cc2)n1`, the “% Inhibition @ 10 uM” value is reported as -5.68%.
